Data published in the supplement of paper PMC12632987.
In all, about 2,300 sequences were measured (“median log2 fold change of GCK-ALFA target abundance (FLAG IP / Myc IP barcode read proportion)”: median about 0.095, lowest 2% from about -0.47 on). Some of the results follow.

B1: LC3A_3_1912 (protein)
chain: AEERLERLRARAEALGHSPEVIAVLLEAARLFLEAGDEEGFELLERLAEALAGLDEGTQLAFAQDLLAELRALGDDREARRAAAKEFLRLAKNENEIIEI
B2: LC3A_3_1519 (protein)
chain: SDEIIKETLKKLKEAGKSEEVLKAAEEALNKLKEKGYEEALKVAAEEAEKMLDLPDELLLDFFNDVLELVENEDLSEEELIEEIKRLARIYKSEGEIEEL
B3: LC3A_3_1743 (protein)
chain: MEEKLEEIREELEELGFSEELIEAALEVVELLLERGFEEAVETLLEELKKLKDVPDEILIAMLEDIKQLVLTQDLNEEEVIEEIKREARVARSESEIIEL
B4: LC3A_3_1645 (protein)
chain: MEEEVEETLELLREAGASEETLEAFRRLAELLKERGFEEALKTLIEEVRKLKDLPSELLLDFLEEVLYVVETEDLNEEELIEEIKRIARVTRNESEIIEL
B5: LC3A_3_1638 (protein)
chain: MEEEIEETEKLLKEAGHSEEVIEAFRKTAELLKEKGYYNALKELIEEMKKLKDLPDDILLAMLEEVRAVVEKPDKTEEEVIKEIKEIATIARNEGEIIEL
B6: LC3A_28_1031 (protein)
chain: SALEASAAAALAEAEAQFKAGEEAVVTLDVGDVDTETARAVVTAFLKELIALSKKYGGVKVSVVINYDGDQETLNAIIDAAEAAEAADPNLTVIIAYPDR
B7: LC3A_17_590 (protein)
chain: SEEIREELEELLKELKELIKEAKKLGIPEAKEVEKLLKEAEKALKEGKLREAAELLREAADLLADALEEIEEELGSKASVLEMEANGLALRAEGILLKLE
B8: LC3A_147_468 (protein)
chain: YITEVDIDILTKNKEEEVIEAIKEIAEELKEEGYEVELEIKTEKLEDGSTYIEATITIKTETEEEAKKAADKVIERLEEMEEKLKDEILGSLISVEITKE
B9: LC3A_78_2085 (protein)
chain: MKVTIIVYSEEAKEEAEEIAAKITDADEILLGLHEELEELLEKVKDADEIEVIIVAPTLDLADELEEKVKEFFKDRKISSISEIDEETGIVTTYIYIEKK
B10: LC3A_3_1360 (protein)
chain: SDELIEETLKFLKEKGKSEETLKAVRETLEALKEKGYENAAKTFVELLKELADLPDELLLDLAEDVLKAVKEKDLSEEELIEFIKNEASVARNEAEIEEL
B11: LC3A_17_584 (protein)
chain: SEEIKKEIKELLKKLEELIKKLKEHGVPEAKEIQKLLEEAKKALEEGKLKEAAELLAEAADLAADAFAEIEDELGDEAELLEMEASGLELEAIGLLLKLE
B12: LC3A_free_8_2459 (protein)
chain: DVDALKAAISAAFDAFEDELTAKMKAAGKSQSDINYMEVLVGEAEMAVMDTAEDDPAKTLEVAKEEFAEIIAAAAEISPELAAFAKELAAKVLAAIEAAL
B13: LC3A_free_46_2330 (protein)
chain: VILEIDIDLLHEDEEKMKKAVEEIEKAAKEIAKEYGAEIEIEVEISKLEDGSYFARIKITVKAETLETAQKIRDDLIDKFEEIATKYGIAMIISYEIIEE
B14: LC3A_3_1467 (protein)
chain: EHPLLRELRAALRARGVPEEAIERIVEAARETEKYGVLEVAVEGLLEALEDPRATPEKLVEIAERLRELVEKEGLTPEEAREEFKVLFLEEVEIEEIDEE
B15: LC3A_free_39_2268 (protein)
chain: SEEELKKYKEELLKEVAPLSPEAQANVKEILKLVEGNVELVKTLLELVKKAKEEGADVEAFIAEALKLVKKMKEEGKSNEEIIKELKELANDFINLIPID
B16: LC3A_3_1703 (protein)
chain: GEELLEEAREIAEKQGLSEETIEAVLEALKALLERGYEEAAKTFIELLKEAKDLSDEILLDLAEDVKYFVETEDANEEEVIEFIKEEYQIAINDQEIEEL
B17: LC3A_3_1608 (protein)
chain: SEALVAAQLARLAAAGLSPAVLAAARKVLEALAAKGFEEAAKTLTDELLALRDLPDERLLAMLEEILAKVETEDLDEEEVIKLIKEEARVARLEAEIEEL
B18: LC3A_128_231 (protein)
chain: SELLEDLKEEAKRAKEVAEELKKIPSVKELAEETIKAAEELIKLIEEGAPLEEIKKAAKEFIEKAKKLIEALKKDPNADKVLVNDLEIEVANIEDLLEKL
B19: LC3A_3_1802 (protein)
chain: MEEKIEELLKELKEAGKSEETIEAVRKALELLKERGYEEALETFIEKLRELIDVPDELLLALAQEVLEYLETEDASEEEVKEFIEEEARLTRLESEIIEL
B20: LC3A_147_409 (protein)
chain: WLVEVDVDILTRDAEEEVIEAFRELAERLREKGYEVELEIEVEKLPNGETYIEVRIRIRAETEEEAKAAAQEVLDHIDELEERLKDKILGSLISVEIEKE
B21: LC3A_28_1288 (protein)
chain: SEIEKNIAEALKEAEKAKKEGKPVVITIKVPSGASEEEIAKVIEGLEKIAEILKDVKDQAIIIDVDSGVAEEHINKLADKAEEIEKKYPNVTVIIALDED
B22: LC3A_13_340 (protein)
chain: TIKLEVTTAEELREKSTAALDANPGEKIEITVTVENEEEAIAIAKELEKIVRKAAEKGSSLNITIKGKRDLVNFVAVEVGAEAYEVLDKTNVTINTEVVP
B23: LC3A_free_46_2416 (protein)
chain: YKVEVEVWTRAAPKEEIDALVERLTKKAREIAEKYGAKVEIKVEYFKEEDGTWSALITITVTVDDEEKAEAIAQELLDEIDKLDEETGLIGLISVEVIKE
B24: LC3A_3_1351 (protein)
chain: MEELIEEAVERLREAGLSEEVIEAAREALEALAEQGHEEAILALTETLLKHKDAPEEDLIEALKNLTEELKANPNLTEEEVLELVKLFDNELAIEPLDEE
B25: LC3A_17_549 (protein)
chain: MEEIKKELEKLLKELEALVKELEKYDPEAAKKLKKKLKEAKKLLEEGKLKEAAETLAEAARELANKLDELEPKHGNEASVLAMEASGLELEAIGLLLKLE
B26: LC3A_free_12_2127 (protein)
chain: SVEEMIEGGAELLVERVELSREAAPEAIRDLIELGDKEAAIEALVAAAEKQGLPDEELLELAKELIDENKMSPEEVERLIEKFRAAGREELAERIAEYAA
B27: LC3A_3_1419 (protein)
chain: LEEEKEELLELLKEAGHSEETLEAVSRLIDLLESRGAEEEALEAIELFRENKDLPSEELLAVAEEVIEALEAGEVTPEEAVELLKELLATARAAAEIIEL
B28: LC3A_45_1963 (protein)
chain: KYEATIDLLVPREDVETVLAAVRATAAALKAEHGDRVQFDLATLEASAAASADEEEVYLRLRITADTKELALDAADRVLEAIEAAVGKPVAAIISVEEVP
B29: LC3A_28_987 (protein)
chain: SETEEAAKEFLERAKKAAKEGKPEVLTLKVSSTTTPEDAKLVAETIKEAGEILKDIKGSAIIIDVESGVKQEHIDLIAKTAEEVEEKTKNVSVIIALDED

The binders below were run against MAP1LC3A, Q9H492 (assay: median log2 fold change of GCK-ALFA target abundance (FLAG IP / Myc IP barcode read proportion) (log2 ratio); each designed protein is fused to an ALFA-tag nanobody in HEK293 cells to bring the named protein to FLAG-tagged glucokinase (GCK); Myc marks an untargeted standard; higher = target protein stabilised (more abundant)). Conditions: target protein: 3xFLAG-MCP-GCK-ALFA reporter; HEK293 landing pad (RPLP).
Summary of the method: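 HEK293 landing-pad cells received a recombined binder library fused to the ALFA nanobody and were induced with 2 μg mL^−1 doxycycline, then transfected with a plasmid encoding a FLAG-tagged target and a Myc-tagged standard. Lysates were collected after 48 h for anti-FLAG and anti-Myc immunoprecipitation, and the circular RNA barcodes were reverse transcribed, amplified and sequenced. Target abundance for each binder is the median log2 ratio of FLAG to Myc barcode read proportions. Barcodes had to reach a proportion of at least 10^−7 in both replicates, each binder needed at least 3 barcodes per replicate, a pseudocount of 10^−6 was applied, and the two replicates were pooled.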

Binder	median log2 fold change
B1	0.195
B2	0.302
B3	0.0801
B4	-0.0927
B5	0.298
B6	0.0201
B7	0.0276
B8	0.3
B9	0.024
B10	0.297
B11	0.068
B12	-0.097
B13	0.0805
B14	0.176
B15	0.355
B16	-0.0778
B17	0.316
B18	-0.0583
B19	0.0528
B20	-0.108
B21	0.258
B22	0.29
B23	0.114
B24	0.152
B25	0.207
B26	0.321
B27	0.0228
B28	0.184
B29	0.0943
